Data on 87 compounds can be found in article PMC4336329 (PLoS ONE, 2015).

SMILES strings stand for the structures. Hit rate of the full screen: of about 310,000 compounds, about 14,000 (4.5%) showed an effect of 50% or more. The effect is printed as a negative number. Some of the results follow.
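Further: peak tail current of the secondary pulse compared with the same well before compound.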

In the assay the target is human ether-à-go-go-related gene (hERG) potassium channel (human, UniProt Q12809). Description: primary screen, population patch clamp on CHO cells stably expressing hERG.
Sequence of human ether-à-go-go-related gene (hERG) potassium channel (Q12809 whole entry, looked up): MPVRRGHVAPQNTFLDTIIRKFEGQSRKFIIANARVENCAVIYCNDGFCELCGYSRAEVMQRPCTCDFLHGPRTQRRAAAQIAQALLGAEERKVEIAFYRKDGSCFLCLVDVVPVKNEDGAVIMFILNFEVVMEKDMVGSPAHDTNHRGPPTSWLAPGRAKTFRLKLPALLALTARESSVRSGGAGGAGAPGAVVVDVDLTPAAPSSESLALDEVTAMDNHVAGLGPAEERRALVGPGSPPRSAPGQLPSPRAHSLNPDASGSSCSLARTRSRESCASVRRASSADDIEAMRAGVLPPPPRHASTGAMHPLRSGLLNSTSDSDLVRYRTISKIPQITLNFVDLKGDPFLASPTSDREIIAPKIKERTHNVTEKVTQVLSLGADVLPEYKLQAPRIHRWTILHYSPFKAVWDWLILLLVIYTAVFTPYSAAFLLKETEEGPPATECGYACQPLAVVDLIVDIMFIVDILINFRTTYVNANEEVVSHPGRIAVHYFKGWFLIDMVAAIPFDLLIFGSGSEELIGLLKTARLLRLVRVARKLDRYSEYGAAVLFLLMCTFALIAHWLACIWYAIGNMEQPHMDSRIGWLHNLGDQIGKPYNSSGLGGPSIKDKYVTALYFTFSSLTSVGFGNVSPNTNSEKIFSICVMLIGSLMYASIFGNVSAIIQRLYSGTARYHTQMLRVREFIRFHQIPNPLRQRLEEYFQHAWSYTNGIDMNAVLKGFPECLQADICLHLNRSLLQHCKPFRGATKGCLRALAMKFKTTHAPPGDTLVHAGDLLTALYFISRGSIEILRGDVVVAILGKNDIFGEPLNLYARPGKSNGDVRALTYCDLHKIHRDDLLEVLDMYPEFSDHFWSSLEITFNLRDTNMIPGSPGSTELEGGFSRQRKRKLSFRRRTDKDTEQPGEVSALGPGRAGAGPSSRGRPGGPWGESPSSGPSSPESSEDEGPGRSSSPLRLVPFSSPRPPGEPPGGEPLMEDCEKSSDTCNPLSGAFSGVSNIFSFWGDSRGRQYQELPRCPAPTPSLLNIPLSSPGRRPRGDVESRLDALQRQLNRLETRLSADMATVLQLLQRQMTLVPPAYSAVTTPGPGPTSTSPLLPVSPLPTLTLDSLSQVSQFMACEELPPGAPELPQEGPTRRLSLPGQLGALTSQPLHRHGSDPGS
Consider `CN(C1=NS(=O)(=O)c2ccccc21)c1ccc(OC(=O)c2ccncc2)cc1`, for which the “hERG current change (%, negative = inhibition) at 10uM” value is on record as -9.07%.
Then `C[C@@H]1CC2[C@@H]3CC[C@H]4CC(=O)CC[C@]4(C)C3=CC[C@]2(C)[C@@]1(O)C(=O)CO` (stereo partly drawn), with 8.04%.
For `COC(=O)c1sc(-c2ccc(Cl)cc2)cc1NC(=O)/C=C/C(=O)O`, the “hERG current change (%, negative = inhibition) at 10uM” value is recorded as 10.3%.
Then `COc1ccccc1NS(=O)(=O)c1cc([N+](=O)[O-])ccc1N/N=C/c1c[nH]c2ccccc12`, with 15.5%; and `CC(C)Oc1ccc(CNC(=O)Cn2ccc3cc(S(=O)(=O)N4CCCC4)ccc32)cc1`, with 22.7%; and `CSc1ccc(CN(C)Cc2nc3ccccc3c(=O)[nH]2)cc1`, with -26.2%.
Next, `COc1ccc(NS(=O)(=O)c2ccc(C)c(C(=O)O)c2)cc1`: 1.54%; `Cc1ccc(S(=O)(=O)CC(O)COc2ccc(F)cc2Cl)cc1` (stereo not drawn): -4.12%; `CS(=O)(=O)Nc1ccccc1N=C(c1ccccc1)c1ccccc1`: -0.393%.
Then `O=C(Cc1ccccc1)Nc1scc(-c2ccccc2)c1C(=O)N1CCOCC1`, with -57.4%; and `Cc1c(-c2ccc(Cl)cc2)[n+](=O)c2c(n1[O-])CCCC2`, with 2.47%; and `CCOc1ccccc1OCCn1ncc2ccc(OC)c(OC)c2c1=O`, with 5.92%.
`CCOc1ccc(CC(=O)OCc2cc(=O)n3cc(Br)ccc3n2)cc1`: the “hERG current change (%, negative = inhibition) at 10uM” value was -6.01%.
Then `O=C(Nc1nnc(-c2ccco2)s1)c1ccccc1`, with 8.26%; and `COc1ccccc1NC(=O)c1sc2ncn(CC(=O)Nc3ccccc3)c(=O)c2c1C`, with 17.5%.
Take `Cc1nnc(SC(C)C(=O)N(C)C2CCCCC2)n1N` (stereo not drawn): the “hERG current change (%, negative = inhibition) at 10uM” value was determined as 8.58%.
Next, `CCOC(=O)C(=O)Nc1sc(C(=O)N(CC)CC)c(C)c1C#N`: 16.7%; `O=C(CN1CCN(S(=O)(=O)c2ccc(F)cc2)CC1)N1CCOCC1`: 9.61%; `CC(C)CN(C(=O)Cn1c(=O)cnc2ccccc21)C1CCS(=O)(=O)C1` (stereo not drawn): 1.99%.
Then `CCCCCSc1nc2c(c(=O)[nH]c(=O)n2C)n1CC`, with 4.59%; and `CCSc1nnc(NC(=O)C(C)(C(F)(F)F)C(F)(F)F)s1`, with -1.54%; and `O=S(=O)(c1ccc(SCCOc2cccc(Br)c2)nc1)N1CCCC1`, with 5.18%.
Next, `O=C(CCSCCC(=O)NCc1ccco1)NCc1ccco1`: 6.38%.
Turning to `CC(=O)N(C)c1ccc(OCC(O)Cn2c(C)nc3ccccc32)cc1` (stereo not drawn), the “hERG current change (%, negative = inhibition) at 10uM” value amounted to 0.698%.
Then `COc1ccc(Nc2nc(-c3sc(C)nc3C)cs2)c(OC)c1`, with 10.4%.
Next, `O=C(CN1CCN(c2ccccc2O)CC1)Nc1ccc2c(c1)OCCCO2`: -7.8%.
Then `C/C(CCN1CCc2nc(-c3ccccc3)c(-c3ccccc3)cc2C1)=N\OC[C@@H](C)[C@H](OCc1ccccc1)C(C)C`, with 17.1%; and `Fc1ccc(CN2CCC(Cc3ccccc3)CC2)cc1F`, with 2.03%; and `O=[N+]([O-])c1cccc(NC(=S)Nc2nc(-c3ccccc3Cl)cs2)c1`, with 11.5%.
As for `CSCCC(NS(=O)(=O)c1ccc(C)cc1)C(=O)NNC(=O)c1csc(N2CCOCC2)n1` (stereo not drawn), the “hERG current change (%, negative = inhibition) at 10uM” value is reported as 16.9%.
Then `Cc1cccc(C2c3[nH]c4ccccc4c3CCN2C(=O)CN2CCOC2=O)n1` (stereo not drawn), with 7.2%; and `Cc1cccc(N(CC(=O)Nc2c(C)n(C)n(-c3ccccc3)c2=O)S(C)(=O)=O)c1`, with 1.12%; and `COC(=O)C1=C(C)n2nnnc2NC1c1cc2ccccc2o1` (stereo not drawn), with -14.3%.
Then `CCOc1cc(C(=S)N2CCOCC2)ccc1OS(=O)(=O)c1ccccc1[N+](=O)[O-]`, with 8.98%.
Regarding `COc1ccccc1NC(=O)c1ccc(NS(C)(=O)=O)cc1`, the “hERG current change (%, negative = inhibition) at 10uM” value is listed as -21.8%.
Then `c1ccc(-c2[nH]ncc2-c2nc3ccccc3[nH]2)cc1`, with -11%; and `Cc1nc2ccccc2c(=O)n1NC(=O)c1ccccc1Br`, with 4.82%.
On to `CC(=O)NCC(=O)OCN1C(=O)c2ccccc2C1=O`, for which the “hERG current change (%, negative = inhibition) at 10uM” value was determined as 1.31%.
In the case of `Cc1cccc(OCCNC(=S)NC(=O)c2cncc(Br)c2)c1`, the “hERG current change (%, negative = inhibition) at 10uM” value stood at 16.9%.
For the compound `COc1ccccc1-c1coc2c(CN3C(C)CCCC3C)c(O)ccc2c1=O` (stereo not drawn), the “hERG current change (%, negative = inhibition) at 10uM” value amounted to 11.1%.
Then `CC(C)(C)c1ccc(CSc2cnn(C(C)(C)C)c(=O)c2Cl)cc1`, with 18%.
As to `CSc1ncccc1C(=O)OCC(=O)c1ccc2c(c1)NC(=O)CO2`, the “hERG current change (%, negative = inhibition) at 10uM” value is recorded as 15.3%.
Next, `O=C(CN1CCN(S(=O)(=O)c2ccccc2)CC1)NC(=O)NCc1ccco1`: -11.4%; `Cc1ccccc1OCC(=O)N/N=C/c1cccc(Oc2ccc([N+](=O)[O-])cc2[N+](=O)[O-])c1`: 5.59%.
Then `COCCN(CCOC)C(=O)C12CCC(C)(C(=O)C1)C2(C)C` (stereo not drawn), with -2.02%.
Consider `N/C(=N\OC(=O)c1ccccc1F)c1cccc([N+](=O)[O-])c1`, for which the “hERG current change (%, negative = inhibition) at 10uM” value was 16.1%.
Next, `CCOC(=O)CCCCCNC(=O)c1c(O)[nH]c(=O)[nH]c1=O`: 17.7%; `CC12CCC(=O)N1C(C(=O)OCC(=O)Nc1ccc(Cl)c(Cl)c1)CS2` (stereo not drawn): -17.1%; `O=C(CSc1nc(=O)n2ccccc2n1)NC1CCCCC1`: 7.26%.
As for `Cc1onc(C(=O)NCCc2ccccc2)c1[N+](=O)[O-]`, the “hERG current change (%, negative = inhibition) at 10uM” value is given as 6.73%.
Next, `CCOC(=O)C1=C(C)OC(N)=C(C#N)C1c1cc2c(cc1Br)OCO2` (stereo not drawn): -0.548%; `NS(=O)(=O)c1ccc(CCNC(=O)COC(=O)CCSc2ccc(Cl)cc2)cc1`: -18.5%.
Consider `O=C(COC(=O)Cc1ccc(Cl)cc1)Nc1cc(S(=O)(=O)N2CCOCC2)ccc1N1CCCC1`, for which the “hERG current change (%, negative = inhibition) at 10uM” value is reported as -15.8%.
Next, `Cc1nc(Br)c(Br)c(C)c1Br`: 14.4%; `CC(C)(C)NC(=O)C1CC1(c1ccccc1)c1ccccc1` (stereo not drawn): 31.4%; `CN(C)CCNC(=O)c1cc(Sc2ccc(F)cc2)nc2ccccc12`: -72.5%.
For the compound `N#C/C(=C\c1cc([N+](=O)[O-])ccc1Cl)C(N)=O`, the “hERG current change (%, negative = inhibition) at 10uM” value worked out at 25.2%.
Next, `COc1ccc(N(C)S(=O)(=O)c2ccc3c(c2)NC(=O)CC(=O)N3)c(OC)c1`: 14.7%; `CCOc1cc(CNCCSc2nnnn2C)cc(Br)c1OCc1ccc(F)cc1.Cl`: -6.83%; `CCCNC(=O)C(Cc1ccccc1)NC(=O)c1ccc(-c2ccccc2)cc1` (stereo not drawn): -17.2%.
Next, `O=C(NCc1cccs1)C1CCCN(S(=O)(=O)c2ccc3c(c2)OCO3)C1` (stereo not drawn): -12.7%.
Then `Cc1cccn2c(=O)c(/C=C(\C#N)C(=O)NC3CCS(=O)(=O)C3)c(N3CCC(C(N)=O)CC3)nc12` (stereo not drawn), with 7.15%; and `Cc1ccc(-c2nc(CS(=O)CC(=O)N3CCN(c4ccc(F)cc4)CC3)c(C)o2)cc1` (stereo not drawn), with -42%.
Take `O=C(Cc1ccc2c(c1)OCCO2)Nc1ccc(Cl)c(S(=O)(=O)N2CCOCC2)c1`: the “hERG current change (%, negative = inhibition) at 10uM” value was -38.3%.
Consider `COc1ccc(NC(=O)CSc2nnc(C3CC3)n2N)cc1`, for which the “hERG current change (%, negative = inhibition) at 10uM” value is listed as -0.249%.
Next, `N#Cc1nc(-c2ccccc2F)oc1NCCN1CCOCC1`: 15.2%.
Next, `Nc1ccc(C(CC(=O)O)n2cccc2)cc1` (stereo not drawn): 9.94%; `O=C(Cn1cncn1)c1ccccc1Br`: 24.6%; `Cc1cc(Br)ccc1SCC(=O)OCC(=O)NCc1ccc2c(c1)OCO2`: 17.5%.
Next, `COc1cc(/C=N/NC(=O)C2CCN(CC(O)COCc3ccccc3)CC2)ccc1O` (stereo not drawn): -78.1%; `CCN(CC)c1ccc(Nc2nc(-c3cccnc3)cs2)cc1`: 17.6%; `CCCn1c(CC)nc([N+](=O)[O-])c1Sc1ccc(C)cc1`: -0.08%.
As to `COc1cc2c(cc1OC)CN(C(=O)C1CCCN(C(=O)c3ccc(Cl)cc3)C1)CC2` (stereo not drawn), the “hERG current change (%, negative = inhibition) at 10uM” value is -8.98%.
Next, `CCC(=NCCC(c1ccccc1)c1ccccc1)c1c(O)[nH]c(=O)[nH]c1=O`: -25.8%; `O=C(NCc1cccnc1)c1c[nH]c2cc3c(cc2c1=O)OCCO3`: 4.87%; `C=CCSc1nc2sc3c(c2c(=O)n1-c1ccc(C)cc1)CCN(C)C3`: 17.7%.
Next, `CCC(=O)N(Cc1cc(=O)[nH]c2ccccc12)c1ccccc1C`: -13.5%; `O=C1NC2(CCCC2)Oc2ccccc21`: 19%; `COc1ccccc1C1=NOC(Cn2c(NCCOCCO)nc3c2c(=O)n(C)c(=O)n3C)C1` (stereo not drawn): -3.95%.
Next, `CC(=O)c1cc2c(C)c(C(=O)c3ccccc3)oc2cc1O`: 10.5%; `O=C(COC(=O)c1ccco1)Nc1ccc2c(c1)OCO2`: 5.79%.
As for `CCn1cc(Br)c(C(=O)Nc2ccc(F)c(Cl)c2)n1`, the “hERG current change (%, negative = inhibition) at 10uM” value is given as -20.3%.
Then `COc1ccc(-c2nc(N3CCN(C)CC3)sc2-c2ccc(OC)cc2)cc1`, with -25.9%; and `COC(=O)c1ccc(COc2ccc3ccc(=O)oc3c2)o1`, with 8.66%.
Next, `COC(=O)C1=C(c2cc3ccccc3s2)C[C@@H]2CC[C@H]1N2C(=O)NCc1ccc(F)cc1`: -2.9%; `N#Cc1ccc(NC(=O)C2=COCCO2)cc1`: 3.09%.
Take `NS(=O)(=O)c1ccc(CNC(=O)c2cnccn2)cc1`: the “hERG current change (%, negative = inhibition) at 10uM” value is -1.09%.
